According to the supplement of paper PMC9938546:
Where a name gives a salt, the structure may show the parent alone. Some of the results follow. Many values rest on one well or one pass, so single values are uncertain.

System: HCT116-GFP
Assay: HCT116-GFP viability (GFP intensity) relative to untreated control, monoculture; higher = less cancer cell killing
Settings: culture: HCT116-GFP monoculture; 10 µM; 72 h
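Also: viability estimated indirectly by image-based GFP quantification with live-cell imaging of the constitutively GFP-expressing human colorectal cancer line, no immune cells added.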

Question: `N#CC(c1ccc(Cl)cc1)c1c(Cl)cc(-n2ncc(=O)[nH]c2=O)cc1Cl` (configuration not stated) [Diclazuril] was tested. Which HCT116-GFP viability did it give?
Answer: 51.3%

Question: `COc1cc(OC)c(C(=O)CCCN2CCCC2)c(OC)c1` [Buflomedil hydrochloride] was tested. Which HCT116-GFP viability did it give?
Answer: 86%

Question: `COc1ccccc1N1CCN(CC(O)COc2cccc3ccccc23)CC1` (configuration not stated) [Naftopidil dihydrochloride] was tested. Which HCT116-GFP viability did it give?
Answer: 68.9%

Question: `CN1CCCC(CC2c3ccccc3Sc3ccccc32)C1` (configuration not stated) [Metixene hydrochloride] was tested. Which HCT116-GFP viability did it give?
Answer: 65.1%

Question: How did the HCT116-GFP viability turn out when `CN1CCC(=C2c3ccccc3CC(=O)c3sccc32)CC1` [Ketotifen fumarate] was run?
Answer: 75.1%

Question: `CCN1C(=O)NC(c2ccccc2)C1=O` (configuration not stated) [Ethotoin] was tested. Which HCT116-GFP viability did it give?
Answer: 102%

Question: `CCCN(CCC)C(=O)C(CCC(=O)O)NC(=O)c1ccccc1` (configuration not stated) [Proglumide] was tested. Which HCT116-GFP viability did it give?
Answer: 100%

Question: With `COc1ccc2c(c1)N(C[C@H](C)CN(C)C)c1ccccc1S2` [Methotrimeprazine maleat salt] as the compound, how does the HCT116-GFP viability read?
Answer: 87.4%

Question: With `CC(C)(Sc1cc(C(C)(C)C)c(O)c(C(C)(C)C)c1)Sc1cc(C(C)(C)C)c(O)c(C(C)(C)C)c1` [Probucol] as the compound, how does the HCT116-GFP viability read?
Answer: 90.8%

Question: For `Cn1ccnc1S` [Methimazole], which HCT116-GFP viability is on record?
Answer: 97.1%

Question: With `Nc1c(Br)cc(Br)cc1CN[C@H]1CC[C@H](O)CC1` [Ambroxol hydrochloride] as the compound, how does the HCT116-GFP viability read?
Answer: 100%

Question: `CN(C)CC/C=C1\c2ccccc2CSc2ccccc21` [Dosulepin hydrochloride] was tested. Which HCT116-GFP viability did it give?
Answer: 67.3%

Question: For `CC(C)(Oc1ccc(Cl)cc1)C(=O)O` [Clofibric acid], which HCT116-GFP viability is on record?
Answer: 86.1%

Question: For `Cn1c(=O)c2c(ncn2CC(=O)O)n(C)c1=O` [Acefylline], which HCT116-GFP viability is on record?
Answer: 88.9%

Question: `Cc1cc(C(=O)NNCc2ccccc2)no1` [Isocarboxazid] was tested. Which HCT116-GFP viability did it give?
Answer: 95.2%

Question: For `CO[C@H]1C[C@H](O[C@H]2[C@H](C)[C@@H](O[C@@H]3O[C@H](C)C[C@H](N(C)C)[C@H]3OC(C)=O)[C@@H](C)C[C@@]3(CO3)C(=O)[C@H](C)[C@@H](OC(C)=O)[C@@H](C)[C@@H](C)OC(=O)[C@@H]2C)O[C@@H](C)[C@@H]1OC(C)=O` [Troleandomycin], which HCT116-GFP viability is on record?
Answer: 98%

Question: For `COc1ccc(-c2ccc(=N)n(CCCC(=O)O)n2)cc1` [Gabazine bromide], which HCT116-GFP viability is on record?
Answer: 101%

Question: For `CN1CCN(C2=Nc3cc(Cl)ccc3Nc3ccccc32)CC1` [Clozapine], which HCT116-GFP viability is on record?
Answer: 98.8%

Question: `C[C@@H]1NC(=O)NC1=O` [Methylhydantoin-5-(L)] was tested. Which HCT116-GFP viability did it give?
Answer: 99.4%

Question: Which HCT116-GFP viability does the source give for `Cc1ccc(-c2ncc(Cl)cc2-c2ccc(S(C)(=O)=O)cc2)cn1` [Etoricoxib] here?
Answer: 103%

Question: Which HCT116-GFP viability does the source give for `CC1CCc2c(N3CCC(O)CC3)c(F)cc3c(=O)c(C(=O)O)cn1c23` (configuration not stated) [Nadifloxacin] here?
Answer: 87%

Question: With `Clc1ccc(COC(Cn2ccnc2)c2ccc(Cl)cc2Cl)c(Cl)c1` (configuration not stated) [Miconazole] as the compound, how does the HCT116-GFP viability read?
Answer: 53.5%

Question: `Cc1cc(=O)n(-c2ccccc2)n1C` [Antipyrine] was tested. Which HCT116-GFP viability did it give?
Answer: 93.4%

Question: How did the HCT116-GFP viability turn out when `NC12CC3CC(CC(C3)C1)C2` [Adamantamine fumarate] was run?
Answer: 110%

Question: Which HCT116-GFP viability does the source give for `O=c1cc(-c2ccc(O)c(O)c2)oc2cc(O)cc(O)c12` [Luteolin] here?
Answer: 68.3%

Question: For `CC(C)(C(=O)c1cccnc1)c1cccnc1` [Metyrapone], which HCT116-GFP viability is on record?
Answer: 87.7%

Question: With `CC(=O)N(O)CCCCCNC(=O)CCC(=O)N(O)CCCCCNC(=O)CCC(=O)N(O)CCCCCN` [Deferoxamine mesylate] as the compound, how does the HCT116-GFP viability read?
Answer: 16.4%

Question: `CC(C)(S)C(N)C(=O)O` (racemic) [D,L-Penicillamine] was tested. Which HCT116-GFP viability did it give?
Answer: 90.7%

Question: How did the HCT116-GFP viability turn out when `CCN[C@H]1C[C@H](C)S(=O)(=O)c2sc(S(N)(=O)=O)cc21` [Dorzolamide hydrochloride] was run?
Answer: 91.2%

Question: Which HCT116-GFP viability does the source give for `O=C1Cc2cc(CCN3CCN(c4nsc5ccccc45)CC3)c(Cl)cc2N1` [Ziprasidone  Hydrochloride] here?
Answer: 68.5%

Question: For `CC(C)/N=c1\cc2n(-c3ccc(Cl)cc3)c3ccccc3nc-2cc1Nc1ccc(Cl)cc1` [Clofazimine], which HCT116-GFP viability is on record?
Answer: 4.05%

Question: `C[C@@H]1[C@H](O)[C@@H](C)/C=C/C=C/C=C/C=C/C=C/C=C/C=C/[C@H](O[C@@H]2O[C@H](C)[C@@H](O)[C@H](N)[C@@H]2O)C[C@@H]2O[C@](O)(C[C@@H](O)C[C@@H](O)[C@H](O)CC[C@@H](O)C[C@@H](O)CC(=O)O[C@H]1C)C[C@H](O)[C@H]2C(=O)O` [Amphotericin B] was tested. Which HCT116-GFP viability did it give?
Answer: 129%

Question: How did the HCT116-GFP viability turn out when `CO[C@@]1(NC(=O)CSCC#N)C(=O)N2C(C(=O)O)=C(CSc3nnnn3C)CS[C@@H]21` [Cefmetazole sodium salt] was run?
Answer: 110%

Question: For `CC(C)NC[C@H](O)COc1ccc(CC(N)=O)cc1` [(S)-(-)-Atenolol], which HCT116-GFP viability is on record?
Answer: 97.1%

Question: Which HCT116-GFP viability does the source give for `CCOC(=O)C(C)(C)Oc1ccc(Cl)cc1` [Clofibrate] here?
Answer: 90.8%

Question: How did the HCT116-GFP viability turn out when `CN1CCc2cccc3c2[C@H]1Cc1ccc(O)c(O)c1-3` [R(-) Apomorphine hydrochloride hemihydrate] was run?
Answer: 6.74%

Question: `CCC(NC(C)C)C(O)c1ccc(O)c(O)c1` (configuration not stated) [Isoetharine mesylate salt] was tested. Which HCT116-GFP viability did it give?
Answer: 7.17%

Question: `CCC(Cc1c(I)cc(I)c(N)c1I)C(=O)O` (configuration not stated) [Iopanoic acid] was tested. Which HCT116-GFP viability did it give?
Answer: 112%

Question: How did the HCT116-GFP viability turn out when `O=C1NCN(c2ccccc2)C12CCN(CCCC(c1ccc(F)cc1)c1ccc(F)cc1)CC2` [Fluspirilen] was run?
Answer: 46.8%

Question: For `CC(C)(C)C(=O)OCOC(=O)[C@@H]1N2C(=O)[C@@H](NC(=O)[C@H](N)c3ccccc3)[C@H]2SC1(C)C` [Pivampicillin], which HCT116-GFP viability is on record?
Answer: 91.5%

Question: `N=C(N)NC(=O)c1nc(Cl)c(N)nc1N` [Amiloride hydrochloride dihydrate] was tested. Which HCT116-GFP viability did it give?
Answer: 103%

Question: How did the HCT116-GFP viability turn out when `CCCCOC(=O)c1ccc(N)cc1` [Butamben] was run?
Answer: 101%

Question: `CCOc1ccccc1OCC1CNCCO1` (configuration not stated) [Viloxazine hydrochloride] was tested. Which HCT116-GFP viability did it give?
Answer: 99.2%

Question: For `CC[C@H]1OC(=O)[C@H](C)[C@@H](O[C@H]2C[C@@](C)(OC)[C@@H](O)[C@H](C)O2)[C@H](C)[C@@H](O[C@@H]2O[C@H](C)C[C@H](N(C)C)[C@H]2O)[C@](C)(OC)C[C@@H](C)C(=O)[C@H](C)[C@@H](O)[C@]1(C)O` [Clarithromycin], which HCT116-GFP viability is on record?
Answer: 86.6%

Question: How did the HCT116-GFP viability turn out when `N[C@@H]1CCCCN(c2c(F)cc3c(=O)c(C(=O)O)cn(C4CC4)c3c2Cl)C1` [Besifloxacin hydrochloride] was run?
Answer: 98%

Question: `CCCCC1=NC2(CCCC2)C(=O)N1Cc1ccc(-c2ccccc2-c2nnn[nH]2)cc1` [Irbesartan] was tested. Which HCT116-GFP viability did it give?
Answer: 88.8%

Question: With `CNS(=O)(=O)Cc1ccc2[nH]cc(CCN(C)C)c2c1` [Sumatriptan succinate] as the compound, how does the HCT116-GFP viability read?
Answer: 95.2%
